# Data from PubChem BioAssay AID889 (National Center for Advancing Translational Sciences (NCATS), 2007).
# Values joined by “and” are separate entries in the source; they are usually repeats but may differ in a detail not shown here. Identical values can stand only once. In all, about 75,000 compounds went through this assay and about 15 (0.02%) were called active. Inconclusive results, whose numbers are uncertain, are shown with a selection of clear calls. The call rests on the fitted dose curve; in most records, active means well fitted inhibition curve with a large enough effect in the main read-out, with a control signal flat (not every such curve was filed as active); inconclusive means small, poorly fitted or top-dose-only effect, or a change in a side signal; inactive means flat fitted curve, though single readings scatter. A potency beside an inconclusive call is a rough fit, not a confirmed value. “Side channel” marks fits to a control or component signal instead of the main read-out.
# Target: Caspase-7 (Homo sapiens) (UniProt P55210)
# Assay: qHTS Assay for Allosteric/Competitive Inhibitors of Caspase-7; on activity change, negative = inhibition: % of control where 0% means no effect
# Conditions: recombinant caspase-7, Ac-DEVD-AFC fluorescence rate; series mostly up to 57.5 µM; activity change, negative = inhibition: at the top concentration
# Potency means the concentration at half of the fitted maximal effect; tags describe the fitted curve by direction and shape or compound fluorescence and quenching.
# Chain of UniProt P55210 (P55210 whole entry, looked up): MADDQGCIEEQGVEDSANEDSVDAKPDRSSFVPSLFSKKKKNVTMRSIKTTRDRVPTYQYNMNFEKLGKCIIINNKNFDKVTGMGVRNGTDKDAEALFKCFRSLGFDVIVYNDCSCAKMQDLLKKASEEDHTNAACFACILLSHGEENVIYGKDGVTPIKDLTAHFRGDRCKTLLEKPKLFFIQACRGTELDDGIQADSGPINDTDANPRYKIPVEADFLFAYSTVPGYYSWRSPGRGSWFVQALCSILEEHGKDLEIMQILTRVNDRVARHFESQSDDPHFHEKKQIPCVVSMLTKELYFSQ
SMILES,Potency,"activity change, negative = inhibition"
O=c1ccc2cc(O[C@H]3OC(CO)C(O)C(O)C3O)c(O)cc2o1 (some centres undefined),"inconclusive: 7.94 µM [fluorescent, side channel, partial curve] and inconclusive: 5.01 µM [fluorescent, side channel, partial curve]",
COc1ccc(Cn2c(N)c(C(=O)NCc3ccco3)c3nc4ccccc4nc32)cc1OC,"inconclusive: 15.8 µM [fluorescent, side channel, partial curve]",
CC(=O)N1CCN(c2ccc(N=Cc3c(O)n(Cc4ccccc4)c(=O)[nH]c3=O)cc2)CC1,"inconclusive: 31.6 µM [fluorescent, single point]",
CCCCCCn1c(N)c(C(=O)NCCN2CCOCC2)c2nc3ccccc3nc21,"inconclusive: 15.8 µM [fluorescent, partial curve]",
Cn1ncnc2c(=O)n(C)c(=O)nc1-2,"inconclusive: 6.31 µM [inhibitor, partial curve]",
COc1cc2c3cc1Oc1c(OC)c(OC)cc4c1C(Cc1cccc(c1)Oc1ccc(c(O)c1)CC3N(C)CC2)N(C)CC4 (centres undefined),"inconclusive: 7.94 µM [fluorescent, side channel, partial curve]",
COc1ccc2c(c[n+](C)c3c4cc5c(cc4ccc23)OCO5)c1OC,,inactive: -1.25%
Cc1ccc2c(c1)C1CN(C)CCC1N2C(=O)c1ccc(Br)o1 (centres undefined),,inactive: -2.5%
COc1ccc2c3c([nH]c2c1)C(C)=NCC3,"inconclusive: 1.58 µM [fluorescent, side channel, full curve] and inconclusive: 10 µM [fluorescent, side channel, partial curve] and inconclusive: 12.6 µM [fluorescent, side channel, partial curve]",
Nc1c(C(=O)NC2CCCC2)c2nc3ccccc3nc2n1CC1CCCO1 (centres undefined),"inconclusive: 25.1 µM [fluorescent, partial curve]",
CCC1CN2CCc3cc(OC)c(OC)cc3C2CC1CC1NCCc2cc(OC)c(OC)cc21 (centres undefined),"inconclusive: 25.1 µM [fluorescent, partial curve]",
Cc1c([C@@H](C)[C@H]2NC[C@H](C)C[C@@H]2O)ccc2c1C[C@@H]1[C@H]2CC=C2C[C@@H](O)CC[C@@]21C,,inactive: -2.05% [at 11.5 µM]
COCCCn1c(N)c(C(=O)OC(C)COC)c2nc3ccccc3nc21 (centres undefined),"inconclusive: 10 µM [fluorescent, side channel, partial curve]",
CCCNC(=O)c1c(N)n(Cc2ccc3c(c2)OCO3)c2nc3ccccc3nc12,"inconclusive: 3.16 µM [inhibitor, partial curve]",
Cc1cc(Cc2cc(C)c(N)cc2N)c(N)cc1N,"inconclusive: 3.98 µM [inhibitor, single point]",
C[n+]1c2cc(N)ccc2cc2ccc(N)cc21,"inconclusive: 3.16 µM [fluorescent, side channel, partial curve]",
O=C(c1ccc2nc(-c3ccco3)c(-c3ccco3)nc2c1)N1CCC2(CC1)OCCO2,"inconclusive: 25.1 µM [inhibitor, single point]",

SMILES,Potency,"activity change, negative = inhibition"
Oc1cc(Cl)c(Cl)c(Cl)c1Cl,,inactive: -1.39%
Cc1ccc(N2C(=O)NC(=O)C3(Cc4ccccc4N4CCCC43)C2=O)cc1 (centres undefined),"inconclusive: 25.1 µM [inhibitor, single point]",
CCN(CC)C(=O)N[C@H]1C[C@H]2c3cccc4[nH]cc(c34)C[C@@H]2N(C)C1,,inactive: 0.681%
CCCCNC(=O)c1c(N)n(CCCOC)c2nc3ccccc3nc12,"inconclusive: 15.8 µM [fluorescent, side channel, partial curve]",
COc1ccc(Cn2c(N)c(C(=O)NCc3ccco3)c3nc4ccccc4nc32)cc1,"inconclusive: 31.6 µM [fluorescent, side channel, single point]",
Clc1ccc(C(c2ccc(Cl)cc2)n2cc[n+](C[C@@H](OCc3ccc(Cl)cc3Cl)c3ccc(Cl)cc3Cl)c2)cc1,"inconclusive: 12.6 µM [quencher, side channel, partial curve]",
Nc1nc(N)c2nc(CNc3ccc(C(=O)NC(CCC(=O)O)C(=O)O)cc3)cnc2n1 (centres undefined),"inconclusive: 31.6 µM [inhibitor, single point]",
CC(C)c1nccn1Cc1ccc(Cl)cc1Cl,,inactive: 4.19% [at 11.5 µM]
CCCC/C(C)=C/[C@@H](NP(=O)(c1ccccc1)c1ccccc1)c1ccccc1,,inactive: -4.93%
Nc1c(C(=O)NCCN2CCOCC2)c2nc3ccccc3nc2n1Cc1ccco1,"inconclusive: 15.8 µM [fluorescent, side channel, partial curve]",
O=c1[nH]c(=O)n(-c2ccc(F)cc2)c(O)c1C=Nc1ccccc1N1CCCC1,"inconclusive: 3.98 µM [inhibitor, single point]",
CC(C)C[C@H]1C(=O)N2CCC[C@@H]2[C@@]2(O)O[C@](NC(=O)[C@@H]3C=C4c5cccc6[nH]cc(c56)C[C@@H]4N(C)C3)(C(C)C)C(=O)N12,"inconclusive: 12.6 µM [fluorescent, partial curve]",
CC(C)C1C(=O)N2CCCC2[C@]2(O)O[C@@](NC(=O)[C@@H]3C=C4c5cccc6[nH]cc(c56)C[C@H]4N(C)C3)(C(C)C)C(=O)N12 (some centres undefined),"inconclusive: 25.1 µM [fluorescent, partial curve]",
O=C(c1ccc2nc3ccc(Cl)cc3c(=O)n2c1)N1CCC2(CC1)OCCO2,"inconclusive: 12.6 µM [fluorescent, side channel, partial curve]",
CCC(C)NC(=O)c1c(N)n(Cc2ccc3c(c2)OCO3)c2nc3ccccc3nc12 (centres undefined),"inconclusive: 10 µM [fluorescent, side channel, partial curve]",
CC(C)OCCCNC(=O)c1c(N)n(CC2CCCO2)c2nc3ccccc3nc12 (centres undefined),"inconclusive: 15.8 µM [fluorescent, side channel, partial curve]",
CO[C@H]1[C@H](O)[C@H](O[C@@H]2[C@H](Oc3cccc4c(O)c5c(=O)oc6ccc(C)c7c(=O)oc(c34)c5c67)O[C@@H](C)[C@H](O)[C@H]2O)O[C@@H](C)[C@@H]1O,"inconclusive: 3.98 µM [fluorescent, side channel, partial curve]",
